{"source": "PubChem BioAssay AID1347073", "about": "(National Center for Advancing Translational Sciences (NCATS), 2019)", "note": "Hit rate of the full screen: of about 45,000 compounds, about 200 (0.44%) were called active. Not shown: some 7% with an inconclusive outcome. The call rests on the fitted dose curve; in most records, active means well fitted activation curve with a large enough effect; inconclusive means small, poorly fitted or top-dose-only effect; inactive means no such curve, though single readings can be large or run the other way. This is one part of the list. Potency means the concentration at half of the fitted maximal effect."}
{"test": "qHTS of TDP-43 Inhibitors: NCGC Sytravon Library Screen; further: nearly all actives have a fitted effect of over 55% in size; on growth rescue (activation): 0% is about no effect", "conditions": "yeast TDP-43 toxicity rescue, BacTiter-Glo growth, 24 h; series mostly up to 46.1 µM; growth rescue (activation): at the top concentration", "outline": "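TDP-43-expressing yeast, pregrown in raffinose, seeded at OD600 0.02 in galactose medium with compound for 24 hr at 30 deg C. Growth read by BacTiter-Glo luminescence, so rescue of toxicity appears as activation.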"}
{"molecule": "CSc1ncccc1C(=O)NCCc1ccccc1F", "growth rescue (activation)": "inactive: 9.1%"}
{"molecule": "S=C(NCc1ccco1)N/N=C/c1ccncc1", "growth rescue (activation)": "inactive: 3.28%"}
{"molecule": "COc1ccc(C(C)=O)cc1COC(=O)CNC(=O)C1CCCCC1", "growth rescue (activation)": "inactive: 8.53%"}
{"molecule": "O=C(NCc1ccc2c(c1)OCO2)NC1CCCCC1", "growth rescue (activation)": "inactive: -4.63%"}
{"molecule": "Cc1noc(C)c1S(=O)(=O)N(C)Cc1ccccc1", "growth rescue (activation)": "inactive: -3.42%"}
{"molecule": "Cc1ccc(S(=O)(=O)/N=C2\\CN(C)C(=O)N2C)cc1", "growth rescue (activation)": "inactive: -3.78%"}
{"molecule": "COc1cc(CNC23CC4CC(CC(C4)C2)C3)ccc1OCc1ccccc1", "growth rescue (activation)": "inactive: 2.76%"}
{"molecule": "Cc1nn(C(C)C(=O)NC2CCC(C)CC2)c(=O)c2c1sc1ccccc12", "note": "(stereo not drawn)", "growth rescue (activation)": "inactive: 15.1%"}
{"molecule": "N#CC1=C(N)Oc2cc(O)c(C=Nc3ccccc3)cc2C1c1ccccc1", "note": "(stereo not drawn)", "growth rescue (activation)": "inactive: 19.1%"}
{"molecule": "Cc1cccc(NC(=O)CN(CC2CCCO2)C(=O)c2cc3ccccc3o2)c1C", "note": "(stereo not drawn)", "growth rescue (activation)": "inactive: 20.1%"}
{"molecule": "CCOc1ccccc1-c1noc(CCC(=O)NC2CCCCC2)n1", "growth rescue (activation)": "inactive: -0.083%"}
{"molecule": "Cc1ccc(NC(=O)COC(=O)c2ccc(OCc3c(C)noc3C)cc2)cc1S(=O)(=O)N1CCOCC1", "growth rescue (activation)": "inactive: -2.78%"}
{"molecule": "Cc1ccc(OCC(=O)NCCCNC(=O)c2ccncc2)cc1", "growth rescue (activation)": "inactive: -1.95%"}
{"molecule": "COc1ccc(CC(=O)N2CCN(c3ccccc3F)CC2)cc1OC", "growth rescue (activation)": "inactive: 16.3%"}
{"molecule": "Cc1cccc(N2C(=O)/C(=C/c3cccnc3)SC2=S)c1", "growth rescue (activation)": "inactive: -11.5%"}
{"molecule": "N#Cc1c(SCC(=O)Nc2ccccc2C(F)(F)F)sc2c(O)cc(=O)[nH]c12", "growth rescue (activation)": "inactive: 7.78%"}
{"molecule": "Cc1ccc(S(=O)(=O)N(CCC(=O)N2CCOCC2)c2ccccc2)cc1", "growth rescue (activation)": "inactive: 10.5%"}
{"molecule": "Cc1ccc(Cc2c(C)nc3nc(SCC(=O)NCCCN4CCCC4)nn3c2C)cc1", "growth rescue (activation)": "inactive: 12%"}
{"molecule": "COc1ccccc1C(=O)N/C(=C\\c1ccc(Br)cc1)C(=O)NCCC(=O)O", "growth rescue (activation)": "inactive: 6.05%"}
{"molecule": "CSc1ccc(S(=O)(=O)N2CCC(C(=O)Nc3ccccc3C(F)(F)F)CC2)cc1", "growth rescue (activation)": "inactive: 15.3%"}
{"molecule": "NS(=O)(=O)c1ccc(NC(=S)NCc2ccc(F)cc2)cc1", "growth rescue (activation)": "inactive: 0.909%"}
{"molecule": "COC(=O)c1c(NC(=O)/C=C/C(=O)O)sc(C)c1-c1ccc(C)cc1", "growth rescue (activation)": "inactive: 8.74%"}
{"molecule": "CCC1CCCCN1CCCNC(=O)CNC(=O)c1nn(-c2ccc(OC)c(Cl)c2)c(=O)c2ccccc12", "note": "(stereo not drawn)", "growth rescue (activation)": "inactive: 13.6%"}
{"molecule": "COc1cc(/C=C2\\CCC(C3CCCC3)C2=O)ccc1OC(C)C", "note": "(stereo not drawn)", "growth rescue (activation)": "inactive: -2.63%"}
{"molecule": "COc1ccc(CNC(=O)CN(c2cccc([N+](=O)[O-])c2)S(C)(=O)=O)cc1", "growth rescue (activation)": "inactive: -5.41%"}
{"molecule": "Cc1ccc(NC(=O)N2CCCC2C(=O)Nc2ccc3c(c2)OCO3)cc1", "note": "(stereo not drawn)", "growth rescue (activation)": "inactive: 8.4%"}
{"molecule": "Cc1ccc(CSCC(=O)NCc2cccnc2)cc1", "growth rescue (activation)": "inactive: 4.97%"}
{"molecule": "O=C(Nc1ccc(NS(=O)(=O)c2ccccc2)cc1)c1ccccc1Cl", "growth rescue (activation)": "inactive: 20.6%"}
{"molecule": "CCC(=O)Nc1ccc(C(=O)N2CCN(C(=O)c3ccco3)CC2)cc1", "growth rescue (activation)": "inactive: -5.64%"}
{"molecule": "CC1(C(=O)NS(=O)(=O)C2CC2)CCCN(C(=O)COc2ccc(Cl)cc2Cl)C1", "note": "(stereo not drawn)", "growth rescue (activation)": "inactive: -11.5%"}
{"molecule": "CCc1nnc(NC(=O)CS(=O)(=O)c2ccccc2)s1", "growth rescue (activation)": "inactive: -1.14%"}
{"molecule": "CCc1n[nH]c(=S)n1/N=C/c1ccccc1OCc1ccc(Cl)cc1", "growth rescue (activation)": "inactive: 5.42%"}
{"molecule": "O=C(Nc1cccc(NC(=O)c2ccco2)c1)c1ccccc1", "growth rescue (activation)": "inactive: 10.6%"}
{"molecule": "O=C(c1ccc(F)cc1F)N1CCCC(c2nc(-c3cccs3)no2)C1", "note": "(stereo not drawn)", "growth rescue (activation)": "inactive: 5.67%"}
{"molecule": "COc1cc(/C=C/C(=O)c2ccc3c(c2)OCCO3)cc(Br)c1OCC(=O)N(C)C", "Potency": "active: 15.8 µM"}
{"molecule": "O=C(COC(=O)COc1ccc2ccccc2c1)NCC(F)(F)F", "growth rescue (activation)": "inactive: -18.9%"}
{"molecule": "COc1cccc(NC(=O)CN(c2ccc([N+](=O)[O-])cc2)S(=O)(=O)c2ccccc2)c1", "growth rescue (activation)": "inactive: 27.3%"}
{"molecule": "CC(C)(C)N(Cc1ccccc1)C(=O)COC(=O)C1CC1", "growth rescue (activation)": "inactive: -16.4%"}
{"molecule": "COCC(C)n1c(C)cc(C(=O)COC(=O)CCc2nc3ccccc3c(=O)[nH]2)c1C", "note": "(stereo not drawn)", "growth rescue (activation)": "inactive: 7.13%"}
{"molecule": "Cc1nc(SCC(=O)c2ccccc2)c(C#N)c(-c2ccco2)c1C(=O)NCc1ccco1", "growth rescue (activation)": "inactive: -26.3%"}
{"molecule": "C=CC[N+](C)(C)CCN1C(=O)C2C(c3ccccc3)C=CC(c3ccccc3)C2C1=O", "note": "(stereo not drawn)", "growth rescue (activation)": "inactive: -0.395%"}
{"molecule": "Cc1ccccc1OCC(=O)NNC(=O)CCN1C(=O)c2ccccc2C1=O", "growth rescue (activation)": "inactive: 0.175%"}
{"molecule": "Cc1cccn2cc(COc3cccc([N+](=O)[O-])c3)nc12", "growth rescue (activation)": "inactive: 8.85%"}
{"molecule": "Cc1cc(N2CCN(C)CC2)nc2ccc(NC(=S)N3CCN(c4ccc(Cl)cc4)CC3)cc12", "growth rescue (activation)": "inactive: 16%"}
{"molecule": "CCNC(=O)Nc1ccccc1C(=O)OC", "growth rescue (activation)": "inactive: 17.7%"}
{"molecule": "CC(NC(=O)CCc1nnc(-c2ccc(-c3ccccc3)cc2)o1)c1nccs1", "note": "(stereo not drawn)", "growth rescue (activation)": "inactive: 14%"}
{"molecule": "Cc1ccc2nc3c(cc(C(=O)NC4CCCCC4)c(=N)n3C3CCCCC3)c(=O)n2c1", "growth rescue (activation)": "inactive: -1.02%"}
{"molecule": "COc1ccc2c(c1)c(=O)oc1c(C)c(OCC(=O)N3CCc4ccccc4C3)ccc12", "growth rescue (activation)": "inactive: 30.8%"}
{"molecule": "Cc1ccc(OCC(=O)Nc2ccc3nn(-c4ccc(Cl)cc4)nc3c2)cc1", "growth rescue (activation)": "inactive: -4.18%"}
{"molecule": "Cc1ccc(-c2noc(-c3ccoc3C)n2)cc1", "growth rescue (activation)": "inactive: -0.672%"}
{"molecule": "Cc1cccc(N2CCN(Cc3nc(CC4CC4)no3)CC2)n1", "growth rescue (activation)": "inactive: 20.5%"}
{"molecule": "OC[C@@H]1CN(Cc2ccccc2)C[C@H](n2cnc3c(NC4CC4)ncnc32)O1", "growth rescue (activation)": "inactive: -0.295%"}
{"molecule": "Cn1cc(CN(Cc2ccccc2)C[C@@H]2CCC(=O)N2)c(-c2ccccc2F)n1", "growth rescue (activation)": "inactive: -15.9%"}
